# Test results: PubChem BioAssay AID2451 (National Center for Advancing Translational Sciences (NCATS), 2010)
# “And” between values parts separate entries of the source, which are not always exact repeats. Identical values can stand only once. Among all 290,000 compounds or so, about 2,100 (0.72%) were called active. Inconclusive means that the source gave no clear call. Such entries were picked first, then a sample of the others. Calls come from the whole dose curve; as a rule, active = well fitted inhibition curve with a large enough effect; inconclusive = small, poorly fitted or top-dose-only effect, or effect the other way; inactive = flat fitted curve, though single readings scatter. Potencies of inconclusive entries are doubtful fits and often do not repeat.
# Molecular target: Fructose-bisphosphate aldolase (Giardia intestinalis (strain ATCC 50803 / WB clone C6)) (UniProt A8B2U2)
# Chain of UniProt A8B2U2 (A8B2U2 whole entry, looked up): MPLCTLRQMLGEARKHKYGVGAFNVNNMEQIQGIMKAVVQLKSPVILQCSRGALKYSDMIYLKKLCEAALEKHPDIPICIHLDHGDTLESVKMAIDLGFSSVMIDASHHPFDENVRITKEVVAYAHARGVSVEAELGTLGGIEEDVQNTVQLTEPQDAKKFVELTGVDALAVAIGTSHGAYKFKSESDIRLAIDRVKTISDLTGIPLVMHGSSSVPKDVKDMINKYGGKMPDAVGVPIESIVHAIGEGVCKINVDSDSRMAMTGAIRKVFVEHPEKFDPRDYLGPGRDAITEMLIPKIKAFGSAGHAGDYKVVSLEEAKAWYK
# Test: qHTS Assay for Inhibitors of Fructose-1,6-bisphosphate Aldolase from Giardia Lamblia; note: nearly all actives have a fitted effect of over 55% in size
# Conditions: purified Giardia FBPA; series mostly up to 59.6 µM
# Outline: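 40 nM FBPA preincubated 10 min at RT with compound (up to 57.5 uM final), then substrate plus GAPDH/TPI/NAD/arsenate coupling and diaphorase/resazurin added. Fluorescence read after 20 min at RT, 525/598 nm.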
# Potency is the fitted concentration of half-maximal effect; tags give direction and shape of the fitted curve.
row,Structure (SMILES),Potency
1,Cc1cc(C)n(-c2nc(C(=O)O)cs2)n1,inactive
2,Cc1ccc(C(=O)NNC(=O)CSc2nnc(-c3ccncc3)n2-c2ccc(C)cc2)cc1,inactive
3,N=C1/C(=C\c2ccc(SCc3ccccc3)o2)C(=O)N=C2SC(CC(=O)N3CCOCC3)=NN12,inactive
4,Cc1ccc(O)c(Nc2ncnc3ccccc23)c1,"inconclusive: 22.4 µM [inhibitor, single point]"
5,O=C(OCC1OC(OC(=O)c2cc(O)c(O)c(OC(=O)c3cc(O)c(O)c(O)c3)c2)[C@@H](OC(=O)c2cc(O)c(O)c(OC(=O)c3cc(O)c(O)c(O)c3)c2)C(OC(=O)c2cc(O)c(O)c(OC(=O)c3cc(O)c(O)c(O)c3)c2)C1OC(=O)c1cc(O)c(O)c(OC(=O)c2cc(O)c(O)c(O)c2)c1)c1cc(O)c(O)c(OC(=O)c2cc(O)c(O)c(O)c2)c1 (stereo partly drawn),active: 3.54 µM
6,O=C(O)/C=C/c1nc(-c2ccccc2)n2ccccc12,"inconclusive: 7.06 µM [inhibitor, single point]"
7,CN1CCN(CCCN2c3ccccc3Sc3ccc(Cl)cc32)CC1,"inconclusive: 17.7 µM [inhibitor, single point] and inconclusive: 35.4 µM [inhibitor, single point] and inconclusive: 15.8 µM [inhibitor, partial curve]"
8,Clc1ccc2nc(-c3ccccc3)[nH]c2c1,"inconclusive: 22.3 µM [inhibitor, partial curve]"
9,O=C(CCc1nnc(CCCc2ccccc2)o1)NCCCC1CCCC1,inactive
10,Cn1c(=S)[nH]c2sc3c(c2c1=O)CCC(C(C)(C)C)C3 (stereo not drawn),"inconclusive: 15.8 µM [activator, partial curve]"
11,O=C(Nc1ccc2c(c1)OCCO2)c1ccc2ccccc2n1,"inconclusive: 19.9 µM [inhibitor, single point]"
12,CC1(C)N(O)C2CCCCC2N1O (stereo not drawn),"inconclusive: 22.4 µM [inhibitor, single point]"
13,COc1ccc(OCC(=O)NNC(=S)NC(=O)c2ccc([N+](=O)[O-])cc2)cc1,"inconclusive: 4.47 µM [inhibitor, partial curve]"
14,CCN(CC)c1cccc(OCC(=O)N(C)CCC#N)c1,"inconclusive: 15.8 µM [inhibitor, partial curve]"
15,COc1ccc(C(c2nnnn2CC2CCCO2)N2CCN(c3ccccc3)CC2)cc1 (stereo not drawn),"inconclusive: 17.7 µM [inhibitor, single point]"
16,Cc1ccc(C)n1-n1c(C)nc2sc3c(c2c1=O)CCCCC3,inactive
17,CC(=O)N1N=C(c2ccccc2)OC1c1ccc([N+](=O)[O-])s1 (stereo not drawn),"inconclusive: 17.7 µM [inhibitor, partial curve]"
18,CCN(CC)c1ccc(SS(=O)(=O)O)cc1,"inconclusive: 15.8 µM [activator, single point]"
19,CN1C(=O)N(C)C2(c3ccccc3)Nn3c(s/c(=C/c4ccco4)c3=O)=NC12c1ccccc1 (stereo not drawn),inactive
20,COc1ccc(CNc2ccnc(-c3ccc(N(C)C)cc3)n2)c(OC)c1,"inconclusive: 14.1 µM [inhibitor, partial curve]"
21,COc1ccc(CCN(C)Cc2ccc(F)cc2F)cc1OC,inactive
22,CCCn1c2c(c(=N)c3c1CCC3)CCC2,inactive
23,Cc1ccc2nc(SCC(=O)NCc3cccs3)[nH]c2c1,inactive

row,Structure (SMILES),Potency
1,COc1ccc(CN2C=C3C(=O)C(C)(OC(=O)C4CCCC4)C(=O)C=C3C=C2c2ccsc2)cc1 (stereo not drawn),"inconclusive: 5.61 µM [inhibitor, partial curve, poor fit]"
2,CN1CCN(C2=C(NS(=O)(=O)c3cccs3)C(=O)c3ccccc3C2=O)CC1,"inconclusive: 1.41 µM [inhibitor, full curve]"
3,CSc1ccc(CN2CCC(C(=O)NCc3ccc(C)cc3)CC2)cc1,"inconclusive: 17.7 µM [inhibitor, partial curve]"
4,O=[N+]([O-])c1cccc(N/N=C/c2cccc(O)c2O)c1,"inconclusive: 15.8 µM [inhibitor, partial curve]"
5,COc1cc(CNCc2ccccn2)ccc1OCc1cccc(Cl)c1,"inconclusive: 28.1 µM [inhibitor, single point]"
6,CN(CC1CCOCC1)C(=O)CC1C(=O)NCCN1Cc1cccc(C(F)(F)F)c1 (stereo not drawn),"inconclusive: 14.1 µM [inhibitor, partial curve, poor fit]"
7,CC1(C)Cc2ccccc2C(COc2ccccc2)=N1,"inconclusive: 25.1 µM [inhibitor, single point]"
8,O=C(NN=c1c(=O)c2ccccc2c1=O)c1ccccc1,"inconclusive: 5.61 µM [inhibitor, partial curve]"
9,CCOc1ccccc1NC(=O)C1CCN(c2ccc(S(=O)(=O)N3CCCC3)cc2)CC1,inactive
10,Cc1nnc(N/N=C/c2ccccc2C(F)(F)F)n1N,"inconclusive: 28.2 µM [inhibitor, partial curve]"
11,Cn1c(=O)[nH]c(=O)c2c1[nH]c(=S)n2Cc1ccc(Cl)cc1,"inconclusive: 5.01 µM [inhibitor, full curve]"
12,CN1C(=O)/C(=C\c2ccc(-c3ccccc3)o2)SC1=S,active: 4.46 µM
13,CC(NCc1cccc(S(=O)(=O)N(C)C)c1)c1ccc(F)cc1 (stereo not drawn),"inconclusive: 22.3 µM [inhibitor, partial curve]"
14,Cc1ccc(C2(C)NC(=O)N(CC(=O)NCc3cccc(Cl)c3)C2=O)cc1 (stereo not drawn),inactive
15,Cc1cc(O)c(/C=N/Nc2ccc(F)cc2)c(=O)o1,"inconclusive: 15.8 µM [inhibitor, single point]"
16,O=C(N/N=C/c1cc(Br)cc([N+](=O)[O-])c1O)c1ccc(NC(=O)c2ccc(F)cc2)cc1,"inconclusive: 25.1 µM [activator, single point]"
17,CNc1nc(Cl)c(SC)c(NCc2cccc(OC)c2)n1,inactive
18,Cc1ccc(N2CCN(C(=S)c3ccc(-c4cccc([N+](=O)[O-])c4)o3)CC2)cc1,active: 15.8 µM
19,O=C(/C(=C(\[O-])c1ccccc1)[n+]1ccc2ccccc2c1)c1ccccc1,"inconclusive: 15.8 µM [inhibitor, partial curve]"
20,CC(C)(C)NC(=S)/N=C(\N)N[N+](=O)[O-],active: 15.8 µM
21,COc1cc(OC)cc(C(=O)NC(=S)Nc2nnn(C)n2)c1,active: 3.54 µM
22,Cc1nn(-c2ccccc2)c(N2CCCC2)c1/C=N/NC(=O)c1cc(-c2cccnc2)nc2ccccc12,inactive
23,CN(C)CC[n+]1ccc(C(=O)c2ccccc2)cc1,"inconclusive: 15.8 µM [inhibitor, partial curve]"

row,Structure (SMILES),Potency
1,CCOC(=O)N1CCC(N2Cc3cccc(C(=O)Nc4ccc(CC)cc4)c3C2=O)CC1,inactive
2,O=c1c(-n2cncn2)c[nH]n1-c1cccc(Cl)n1,"inconclusive: 9.98 µM [inhibitor, partial curve]"
3,CCN(CC)CCNc1cc(C)nc2c1C(=O)C(=O)C=C2N1CCCCC1,active: 1.99 µM
4,COc1cc(CN2CCSCC2)c([N+](=O)[O-])cc1OC,"inconclusive: 28.2 µM [inhibitor, partial curve]"
5,CCC(NC(=O)Nc1cc(OC)c(OC)c(OC)c1)(C(F)(F)F)C(F)(F)F,"inconclusive: 15.8 µM [inhibitor, single point]"
6,CCCn1c(=S)[nH]c2cc(C(=O)N3CCN(C(=O)OCC)CC3)ccc2c1=O,"inconclusive: 10 µM [inhibitor, partial curve]"
7,CN1C(=O)NC(=O)/C(=C/c2ccc([N+](=O)[O-])o2)C1=O,active: 17.7 µM
8,Cc1cc[n+](-c2[nH]c(=O)sc2/C=N/N=C(\[O-])c2ccccc2)cc1,"inconclusive: 7.92 µM [inhibitor, partial curve]"
9,CCOC(=O)C1=C(C)NC(=O)NC1c1c(C)nn(-c2ccccc2)c1Cl (stereo not drawn),"inconclusive: 15.8 µM [inhibitor, partial curve]"
10,CCN1C(=NCc2cc(OC)c(OC)c(OC)c2)N[C@@H](c2cccc(F)c2)C(C(=O)OC)=C1C,inactive
11,CS(=O)(=O)N(CC(=O)N1CCC(C(N)=O)CC1)c1cc(C(F)(F)F)ccc1Cl,inactive
12,CC1CCN(S(=O)(=O)c2nnc(NC(=O)c3ccccc3Br)s2)CC1,"inconclusive: 35.5 µM [inhibitor, single point]"
13,Cc1ccc(C[C@@H](NS(=O)(=O)c2ccc(C(=O)O)cc2)C(=O)O)cc1,inactive
14,Cc1c(N=C2C=CC(=O)c3ccccc32)c(=O)n(-c2ccccc2)n1C,active: 17.7 µM
15,CCC1C(O)=C(c2ccccn2)C(=N)N1c1ccccc1 (stereo not drawn),"inconclusive: 19.9 µM [inhibitor, partial curve]"
16,Cc1ccc(C(=O)NCc2ccccn2)cc1NC1=NC2CS(=O)(=O)CC2S1 (stereo not drawn),"inconclusive: 22.4 µM [inhibitor, single point]"
17,COCCOC(=O)C(C#N)c1nc2ccccc2nc1N1CCN(Cc2ccccc2)CC1 (stereo not drawn),"inconclusive: 0.397 µM [inhibitor, full curve]"
18,Cc1cccc(C)c1-n1c(C)cc(/C=C2\NC(=O)NC2=O)c1C,"inconclusive: 17.7 µM [inhibitor, partial curve]"
19,Cc1cc(C)cc(NC(=O)CS(=O)(=O)c2ccccc2)c1,inactive
20,O=C(CCCSc1nc(-c2ccco2)cc(C(F)(F)F)n1)Nc1ccc2c(c1)OCO2,"inconclusive: 22.4 µM [inhibitor, partial curve]"
21,CN1C(=O)c2ccc(NC(=S)NC(=O)C(C)(C)C)cc2C1=O,"inconclusive: 19.9 µM [inhibitor, single point]"
22,CC(C)n1c(=S)[nH]c2c1c(=O)[nH]c(=O)n2C,active: 15.8 µM
